Laboratory results from ChEMBL document CHEMBL4888484, “Replenishing the malaria drug discovery pipeline: Screening and hit evaluation of the MMV Hit Generation Library 1 (HGL1) against asexual blood stage Plasmodium falciparum ,using a nano luciferase reporter read-out” (2022).
About 540 (0.36%) of roughly 150,000 compounds showed an effect of 50% or more. This is one part of the list.

System: Plasmodium falciparum
Assay: Primary screen in NF54 nanoGlo assay, in single point, at 2uM, 72h; a lower Z score goes with more inhibition
Format: functional, Erythrocyte
Settings: timepoint 72 hour

Structure (SMILES) | % Inhibition | Z score
CCOc1ccc(Nc2c(C(=O)N3CCOCC3)cnc3nc(C)ccc23)cc1 | -5% | 0.78
Cc1cc(-c2cccc(C(=O)N(C)Cc3noc(C4CC4)n3)c2)ccc1Cl | -15% | 1.52
O=c1[nH]cnc2c1CN(c1cncc(OC3CCCCC3)n1)CC2 | -16% | 2.11
CC(C)c1nnc(CN2CC3C4CCC(O4)C3C2)o1 (stereo unspecified) | -5% | 0.65
CC[C@@H](C(=O)N(C)C)N(C)Cc1nncn1CC | 4% | -0.55
CCCCC(=O)N1CCC[C@H](c2cc(N3CCOCC3)nc(C)n2)C1 | -2% | 0.28
CC(C)(C)C(=O)N1CC(N2C(=O)COC2=O)C1 | -9% | 1.06
Cc1onc(C(=O)N2CC[C@@H](n3c(=O)n(C)c4cccnc43)C2)c1Cn1cccn1 | -13% | 1.65
Cc1ocnc1C(=O)N1CCC[C@H]1c1nccs1 | -15% | 2.02
CCCC[C@@H](COC)NC(=O)NC1CCC(O)CC1 (stereo partly specified) | -10% | 1.96
Cc1csc([C@H](C)NC(=O)C2(N3CCCC3)CCCCC2)n1 | -19% | 2.4
CC(C)n1cnnc1CNC1CCN(c2nnc(-c3ccccc3)s2)CC1 | -9% | 1.34
O=C(Nc1cccc(CO)c1)C1=CCCCO1 | -9% | 1.08
c1cc2c(cc1CN1CCC[C@H](Nc3ccc4c(c3)OCO4)C1)CCO2 | -12% | 1.46
CC(C)c1cc(C(=O)NCC2CCN(S(=O)(=O)c3cccs3)CC2)on1 | 2% | -0.38
O=C([C@H]1CCCN(c2nnc(N3CCCCC3=O)s2)C1)N1CCN(c2ccccc2)CC1 | 10% | -1.91
O=C(COc1ccc2ccccc2c1)Nn1cnc2ccccc2c1=O | 3% | -0.42
CNS(=O)(=O)Nc1ccc(NC(=O)C2CC(=O)C2)cc1 | -10% | 1.14
COCCNCc1csc(COc2cccc3ccccc23)n1 | -5% | 0.88
COc1nnc(NC(=O)N2CCC[C@H]2c2cccs2)s1 | -11% | 1.66
CC1(C)OC[C@H](CNC(=O)c2cncn2-c2ccc(-c3ccc(F)c(F)c3)cc2)O1 | 3% | -0.38
Cc1cc(C(=O)Nc2ccccc2-c2cn3c(n2)CCCC3)n(C)n1 | 13% | -1.72
COC(C)(C)c1cn(Cc2csc(C)n2)nn1 | -17% | 2.31
Cc1ccc(F)cc1NCc1cncn1C | 0% | -0.04
NC[C@@H](C(=O)N1CCc2sccc2C1)c1ccccc1 | -3% | 0.4
CCOC(=O)[C@@H]1CC[C@H](NC(=O)N2CCOC(CC)C2)C1 (stereo partly specified) | -7% | 0.73
CN1CCN(c2ccnc(NC(=O)c3ccc4c(c3)NC(=O)C4(C)C)c2)CC1 | 3% | -0.48

Structure (SMILES) | % Inhibition | Z score
Cc1nc(Cn2ccnc2[C@H](O)c2ccc(F)cc2)no1 | -9% | 1.21
Cc1cc(C(=O)N2C[C@H]3CC[C@@H](C2)[C@H]3O)c(C)o1 | -18% | 1.83
Cc1cnc2c(Cl)c(C(=O)NCCS(=O)(=O)N3CCCC3)nn2c1 | -7% | 0.8
CC(C)Cn1ncnc1CN1CCOc2ccc(F)cc21 | -6% | 0.82
CCOC(=O)N1CCN(C(=O)C[C@@H]2N=C(O)N(c3cccc4ccccc34)C2=O)CC1 | 4% | -0.57
COc1ncc(NC(=O)c2ccc(Br)o2)cn1 | 0% | 0
O=C(CCc1cc2n(n1)CCCN(Cc1cccc(O)c1)C2)N1CCCC1 | -23% | 2.81
NC(=O)c1c(NC(=O)CN2CCC[C@H](CN3CCN(c4ccccn4)CC3)C2)sc2c1CCCC2 | -1% | 0.15
C=CCNC(=O)CN(C)C1CCCCC1 | -4% | 0.43
COc1ccc(-n2nc(C(=O)Nc3nc4ccc(OC)cc4s3)c3ccccc3c2=O)c(OC)c1 | 16% | -1.91
CN(C)CCN(C(=O)c1ccc(S(=O)(=O)N(C)C[C@H]2CCCO2)cc1)c1nc2c(F)cccc2s1 | 16% | -2.07
Cc1cccc(CCNC(=O)NC2c3cccc(F)c3CCC2C)n1 (stereo unspecified) | -2% | 0.16
Cn1ccc2cccc(Cc3noc(C[C@H]4CCNC4=O)n3)c21 | -1% | 0.16
C[C@@H]1CN(C(=O)CN2CCOCC2)CC[C@@]1(O)C1CCOCC1 | -8% | 1.33
CN1CCC[C@H](NC(=O)c2cc3ncccc3o2)c2ccccc21 | -14% | 1.87
CCc1ccc(N2C(=O)C3ON(c4ccccc4)C(c4cccc5ccccc45)C3C2=O)cc1 (stereo unspecified) | -9% | 0.91
O=C(N[C@@H](Cc1ccccc1)c1ccccc1)c1cc2n(n1)CCN(Cc1c(Cl)cccc1Cl)C2=O | 1% | -0.29
Cc1nccn1C[C@@H](C)CNC(=O)c1nc2n(n1)CCCN2 | -5% | 0.53
Cc1cccc(N(CC(C)(C)C)C(=O)[C@H]2CCCO2)n1 | -3% | 0.37
COc1ccc(-c2noc([C@@H]3CCCN3C(=O)c3cc4ccccc4[nH]3)n2)cc1OC | -3% | 0.38
O=C(Nc1cccc(F)c1)c1c(F)c(F)c2c(c1F)N(Cc1cccnc1)CCS2(=O)=O | -7% | 0.91
COc1ncc(C(=O)NCc2csc3c2CCCC3)cn1 | -3% | 0.41
Cc1cccc([C@H]2CCCN(C(=O)NCCCN3CCC(O)CC3)C2)c1 | 10% | -1.29
Cc1cc(C)nc(NC(=O)c2ccco2)n1 | -10% | 1.18
COc1ccc(CNC(=O)CCc2c(C)nn(-c3ccc4nnc(C)n4n3)c2C)c(OC)c1 | 5% | -0.63
CCCC(=O)N1CCC(N(Cc2ccc(C)cc2)C(=O)CN(CCOC)S(=O)(=O)c2ccccc2)CC1 | -5% | 0.64
